Results taken from PubChem BioAssay (Tox21).
“And” between values parts separate entries of the source, which are not always exact repeats. Equal values may be shown once. This list was built around the results that the source calls inconclusive (neither active nor inactive); the mix of calls is not that of the screen. For part of these data: Where the call is inconclusive, the potency comes from a doubtful curve fit. The source made the active and inactive calls. Unless noted, calls come from the whole dose curve; as a rule, active = well fitted curve in the direction sought with a large enough effect in the repeat runs; inconclusive = weak or mixed curves; inactive = no such curve, though single readings can be large; an effect the other way counts as inactive or inconclusive.

Key:
[1] = molecular target: Estrogen receptor beta (Homo sapiens) (UniProt Q92731); assay: qHTS assay to identify small molecule antagonists of the estrogen receptor beta (ER-beta) signaling pathway (AID 1259378; active = well fitted inhibition curve with a large enough effect in the signal ratio in the repeat runs, not every such curve was filed as active; inconclusive = weak or mixed curves, or effect the other way; inactive = no such curve, though single readings can be large or run the other way; the % refers to the signal ratio); conditions: ER-beta-UAS-bla HEK293T, beta-lactamase FRET ratio, 16 h; activity, negative = inhibition: at 92.4 µM (top of the series) unless noted
Sequence of UniProt Q92731 (Q92731 whole entry, looked up): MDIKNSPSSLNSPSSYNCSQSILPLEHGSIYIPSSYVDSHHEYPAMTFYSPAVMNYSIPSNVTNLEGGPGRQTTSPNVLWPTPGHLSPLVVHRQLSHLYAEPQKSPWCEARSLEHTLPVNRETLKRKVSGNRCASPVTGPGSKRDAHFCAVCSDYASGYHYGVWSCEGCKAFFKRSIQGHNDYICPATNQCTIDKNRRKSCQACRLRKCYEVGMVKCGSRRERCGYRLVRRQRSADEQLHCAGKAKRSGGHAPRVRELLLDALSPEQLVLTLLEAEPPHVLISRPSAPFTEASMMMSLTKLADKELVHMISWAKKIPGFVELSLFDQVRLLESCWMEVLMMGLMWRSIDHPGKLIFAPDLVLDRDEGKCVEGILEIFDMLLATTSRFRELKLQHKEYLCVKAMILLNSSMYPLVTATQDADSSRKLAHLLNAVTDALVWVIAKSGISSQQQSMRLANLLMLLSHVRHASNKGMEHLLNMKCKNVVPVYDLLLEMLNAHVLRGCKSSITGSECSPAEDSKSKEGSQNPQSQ
Method in brief: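 ER-beta-UAS-bla HEK293T cells in 2% charcoal-stripped FBS medium treated with compound plus 1nM final 17-beta-estradiol for 16 hr at 37C. Beta-lactamase reporter read by FRET substrate fluorescence after 2 hours at room temperature.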

[2] = qHTS assay to identify small molecule antagonists of the TGF-beta/Smad signaling pathway - cell viability counter screen (AID 1346824); note: nearly all actives have a fitted effect of over 50% in size
Method in brief: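 SBE-bla HEK 293T cells, incubated overnight, then compound plus 0.25 ng/mL TGF-beta1 (stock added) for 5 hr at 37 C. Viability was read in the same wells by CellTiter-Glo luminescence after 30 min at room temperature.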

[3] = molecular target: Progesterone receptor (Homo sapiens) (UniProt P06401); assay: qHTS assay to identify small molecule agonists of the progesterone receptor (PR) signaling pathway (AID 1346784; calls by dose curve; note: nearly all actives have a fitted effect of over 30% in size); conditions: PR-UAS-bla HEK293T, beta-lactamase FRET ratio, 16 h; activation: at 92.4 µM (top of the series) unless noted
Sequence of UniProt P06401 (P06401 whole entry, looked up): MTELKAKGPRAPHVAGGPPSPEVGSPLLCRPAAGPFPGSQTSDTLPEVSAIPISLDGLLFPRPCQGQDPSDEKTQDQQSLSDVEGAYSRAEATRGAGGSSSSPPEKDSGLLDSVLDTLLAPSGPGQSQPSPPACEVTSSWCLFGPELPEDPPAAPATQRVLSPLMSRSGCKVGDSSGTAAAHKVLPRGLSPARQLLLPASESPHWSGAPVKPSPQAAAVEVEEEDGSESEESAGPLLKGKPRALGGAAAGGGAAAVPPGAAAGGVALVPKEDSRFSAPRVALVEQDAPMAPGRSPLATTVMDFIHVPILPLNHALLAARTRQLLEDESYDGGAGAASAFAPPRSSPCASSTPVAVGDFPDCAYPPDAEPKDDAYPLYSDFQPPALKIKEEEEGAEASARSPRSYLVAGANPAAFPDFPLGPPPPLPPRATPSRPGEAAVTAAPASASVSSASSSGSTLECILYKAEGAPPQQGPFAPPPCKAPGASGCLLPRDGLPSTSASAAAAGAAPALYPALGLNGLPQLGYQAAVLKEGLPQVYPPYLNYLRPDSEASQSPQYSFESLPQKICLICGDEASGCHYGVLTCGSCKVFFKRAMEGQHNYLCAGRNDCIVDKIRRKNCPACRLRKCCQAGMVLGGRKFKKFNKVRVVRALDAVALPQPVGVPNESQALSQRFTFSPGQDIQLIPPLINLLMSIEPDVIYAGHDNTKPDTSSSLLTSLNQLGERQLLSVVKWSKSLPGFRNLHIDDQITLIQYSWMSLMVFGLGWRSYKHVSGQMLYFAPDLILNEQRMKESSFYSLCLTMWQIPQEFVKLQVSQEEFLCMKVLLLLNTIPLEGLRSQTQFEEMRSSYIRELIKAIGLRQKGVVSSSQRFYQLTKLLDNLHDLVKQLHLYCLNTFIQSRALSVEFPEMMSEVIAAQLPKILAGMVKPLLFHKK
Method in brief: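 HEK 293T PR-UAS-bla reporter cells, 2% charcoal-stripped FBS; 6 hr settle at 37C/5% CO2, compound (DMSO) 16 hr, LiveBLAzer B/G FRET substrate 2 hr RT, fluorescence intensity read.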

[4] = molecular target: Thyrotropin receptor (Homo sapiens) (UniProt P16473); assay: qHTS assay to identify small molecule antagonists of the thyroid stimulating hormone receptor (TSHR) signaling pathway (AID 1259385; calls by dose curve; note: nearly all actives have a fitted effect of over 20% in size); conditions: TSHR-HEK293 cAMP HTRF, TSH-stimulated antagonist mode; activity change, negative = inhibition: at 92.4 µM (top of the series) unless noted
Sequence of UniProt P16473 (P16473 whole entry, looked up): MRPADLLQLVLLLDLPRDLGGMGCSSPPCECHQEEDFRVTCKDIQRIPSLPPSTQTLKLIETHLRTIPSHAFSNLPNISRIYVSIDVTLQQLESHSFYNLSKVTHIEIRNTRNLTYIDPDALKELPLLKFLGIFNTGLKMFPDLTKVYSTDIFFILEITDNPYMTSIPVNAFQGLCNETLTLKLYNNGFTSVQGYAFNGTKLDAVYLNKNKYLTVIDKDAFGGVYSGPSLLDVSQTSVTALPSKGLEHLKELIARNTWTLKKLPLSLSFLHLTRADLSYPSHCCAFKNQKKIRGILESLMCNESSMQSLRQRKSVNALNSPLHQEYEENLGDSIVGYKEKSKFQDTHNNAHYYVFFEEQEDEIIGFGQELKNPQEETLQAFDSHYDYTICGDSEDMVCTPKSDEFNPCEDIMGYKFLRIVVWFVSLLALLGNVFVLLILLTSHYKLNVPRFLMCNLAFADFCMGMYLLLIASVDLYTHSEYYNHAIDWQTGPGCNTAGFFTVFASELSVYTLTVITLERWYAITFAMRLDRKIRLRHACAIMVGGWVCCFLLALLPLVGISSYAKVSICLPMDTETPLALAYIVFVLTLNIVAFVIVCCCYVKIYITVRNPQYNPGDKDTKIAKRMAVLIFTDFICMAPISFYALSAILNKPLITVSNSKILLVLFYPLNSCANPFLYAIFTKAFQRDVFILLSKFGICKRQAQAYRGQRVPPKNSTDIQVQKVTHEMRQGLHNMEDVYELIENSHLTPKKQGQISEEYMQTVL
Method in brief: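 TSHR-HEK293 cells (800/well) plated 18 h, then compounds with Ro20-1724 and TSH at 1.5 ng/mL final, 30 min at room temperature. cAMP quantified by HTRF (cAMP-d2/anti-cAMP-cryptate, 1 h); 15 concentrations in triplicate.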

[5] = qHTS assay to identify small molecule antagonists of the progesterone receptor (PR) signaling pathway - cell viability counter screen (AID 1346798); note: nearly all actives have a fitted effect of over 50% in size
Method in brief: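 Luminescence readout (CellTiter-Glo, 30 min, RT) of viability in PR-UAS-bla HEK293T cells exposed to compound and R5020 agonist for 16 hr at 37C, 5% CO2; run in the same wells as the beta-lactamase reporter read.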

[6] = qHTS assay to identify small molecule agonists of the progesterone receptor (PR) signaling pathway - cell viability counter screen (AID 1346799; calls by dose curve; note: nearly all actives have a fitted effect of over 45% in size)
Method in brief: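 HEK293T PR-UAS-bla, 3,000 cells/well, 2% charcoal-stripped FBS; 6 h settle, compound 16 h at 37C/5% CO2; LiveBLAzer 2 h RT, then CellTiter-Glo 30 min RT, luminescence read.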

[7] = qHTS assay to identify small molecule agonists of the androgen receptor (AR) signaling pathway in the presence of an antagonist - cell viability counter screen (AID 1259379); note: nearly all actives have a fitted effect of over 25% in size
Method in brief: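 Seed MDA-kb2 at 3,000 cells/well; incubate 5 hr, 37C, 0% CO2. Add nilutamide to 3.0uM final, then pin compounds at 15 concentrations. Incubate 16 hr. Add CellTiter-Fluor at 15 hr, read fluorescence after 1 hr.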

[8] = molecular target: Progesterone receptor (Homo sapiens) (UniProt P06401); assay: qHTS assay to identify small molecule antagonists of the progesterone receptor (PR) signaling pathway (AID 1346795; active = well fitted inhibition curve with a large enough effect in the signal ratio in the repeat runs, not every such curve was filed as active; inconclusive = weak or mixed curves; the % refers to the signal ratio); conditions: PR-UAS-bla HEK293T, beta-lactamase FRET ratio, 16 h; activity change, negative = inhibition: at 92.4 µM (top of the series) unless noted
Method in brief: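 Beta-lactamase reporter, HEK293T PR-UAS-bla line; 2% charcoal-stripped FBS; 6 hr pre-incubation, 37C/5% CO2. Compound + R5020 1 nM final, 16 hr. LiveBLAzer B/G FRET substrate, 2 hr RT; fluorescence intensity read.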

[9] = qHTS assay to identify small molecule agonists of the estrogen receptor alpha (ER-alpha) signaling pathway in the presence of an antagonist - cell viability counter screen (AID 1259386);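 note: cells exposed to compounds for 22 h at 37 °C before the viability read; nearly all actives have a fitted effect of over 30% in size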
Method in brief: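 Viability counter screen using VM7Luc4E2 (full-length ER-alpha, four ERE-luciferase). The cells were treated with compounds alongside ICI-182,780 10.0nM for 22hr, and live-cell protease fluorescence was quantified with CellTiter-Fluor.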

[10] = qHTS assay to identify small molecule agonists of the estrogen receptor beta (ER-beta) signaling pathway - cell viability counter screen (AID 1259380); note: nearly all actives have a fitted effect of over 30% in size
Method in brief: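 CellTiter-Glo read, 30 min RT, same wells as bla assay; cells ER-beta-UAS-bla HEK293T; 16 hr compound, 37C; medium 2% charcoal-stripped FBS.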
% is set by controls: 0 for no effect and ±100 for the full control effect; potency is the fitted concentration of half-maximal effect; tags give direction and shape of the fitted curve or compound fluorescence and quenching.

SMILES: OCCBr
- Potency [1]: inactive
- Potency [2]: inactive

SMILES: Nc1ccccc1C(=O)O
- activity, negative = inhibition [1]: inconclusive: 21.8%
- Potency [3]: inactive

SMILES: O=C(NCNC(=O)NC1C(=O)NC(=O)N1CO)NC1C(=O)NC(=O)N1CO (configuration not stated)
- Potency [1]: inactive
- Potency [4]: inactive
- Potency [5]: inconclusive: 24.3 µM [rising, single point]
- Potency [6]: inconclusive: 27.3 µM [cytotoxic, single point]

SMILES: CCC(Br)(CC)C(=O)NC(N)=O
- Potency [1]: inactive
- Potency [5]: inactive
- Potency [6]: inconclusive: 1.22 µM [rising, single point]

SMILES: Nc1ccccc1Cl
- Potency [7]: inactive

SMILES: O=C(O)COc1cc(Cl)c(Cl)cc1Cl
- Potency [1]: inactive
- Potency [6]: inconclusive: 54.5 µM [cytotoxic, single point] and inconclusive: 54.5 µM [cytotoxic, partial curve]

SMILES: CCCN(CCCl)c1c([N+](=O)[O-])cc(C(F)(F)F)cc1[N+](=O)[O-]
- Potency [1]: inactive
- activity change, negative = inhibition [8]: inconclusive: -26.8%
- Potency [5]: inconclusive: 61.1 µM [rising, partial curve, poor fit]

SMILES: COP(=S)(OC)Oc1cc(Cl)c(Cl)cc1Cl
- activity, negative = inhibition [1]: inconclusive: -35.2%
- Potency [4]: inconclusive: 23.7 µM [falling, partial curve, poor fit]
- Potency [9]: inactive
- activity change, negative = inhibition [8]: inconclusive: -31%
- Potency [6]: inconclusive: 60.7 µM

SMILES: Cc1ccccc1CCl
- Potency [1]: inactive
- Potency [9]: inactive

SMILES: COC1CC(=C(c2cccs2)c2cccs2)C[N+](C)(C)C1 (configuration not stated)
- Potency [7]: inconclusive: 33.5 µM [cytotoxic, partial curve, poor fit]

SMILES: BrCCBr
- Potency [1]: inactive
- Potency [8]: inconclusive: 61.9 µM [falling, partial curve, poor fit]
- Potency [6]: inconclusive: 0.595 µM [cytotoxic, single point]

SMILES: C[N+](C)=CCl
- activity, negative = inhibition [1]: inconclusive: 3.98%
- Potency [8]: inactive
- Potency [5]: inconclusive: 1.37 µM [cytotoxic, single point]
- Potency [6]: inactive

SMILES: CC(=O)c1cc2c(cc1C)C(C)(C)C(C)CC2(C)C (configuration not stated)
- activity, negative = inhibition [1]: inconclusive: -46.4%
- activity change, negative = inhibition [4]: inconclusive: -14.1%
- Potency [3]: inactive
- Potency [8]: inconclusive: 17.2 µM [rising, partial curve, poor fit]
- Potency [6]: inconclusive: 68.6 µM [cytotoxic, single point]

SMILES: CCCCCC[N+](=O)[O-]
- Potency [1]: inactive
- Potency [8]: inactive
- Potency [5]: inactive

SMILES: CCC(C)Nc1c([N+](=O)[O-])cc(C(C)(C)C)cc1[N+](=O)[O-] (configuration not stated)
- Potency [1]: inactive
- activity change, negative = inhibition [4]: inconclusive: -9.08%
- Potency [8]: inconclusive: 48.6 µM [falling, partial curve]

SMILES: O=C1CN=C(c2ccccc2)c2cc(Cl)ccc2N1CC1CC1
- Potency [1]: active: 28.7 µM
- Potency [8]: active: 11.4 µM
- Potency [5]: inconclusive: 64.2 µM [rising, single point]
- Potency [6]: inconclusive: 45.4 µM [rising, partial curve]

SMILES: CCN
- Potency [1]: inactive
- Potency [2]: inactive

SMILES: COc1cc(CC(C)N)cc2c1OCO2 (configuration not stated)
- Potency [7]: inactive
- Potency [10]: inactive
- Potency [9]: inconclusive: 71.6 µM [cytotoxic, partial curve, poor fit]
- Potency [6]: inactive

SMILES: O=[N+]([O-])c1ccccc1O
- Potency [10]: inconclusive: 76.7 µM [rising, single point]

SMILES: COC(=O)C(Cl)C(=O)OC
- Potency [7]: inconclusive: 11.9 µM [cytotoxic, full curve]
- Potency [6]: inactive

SMILES: O=C(NCc1cccnc1)Nc1ccc([N+](=O)[O-])cc1
- Potency [10]: inconclusive: 61.1 µM [cytotoxic, single point]
- Potency [9]: inactive
- activation [3]: inconclusive: -22.8%
- Potency [8]: inconclusive: 24.3 µM
- Potency [5]: active: 24.3 µM
- Potency [6]: active: 43.3 µM
- Potency [2]: inconclusive: 54.9 µM [cytotoxic, single point]

SMILES: COP(=S)(Oc1cc(Cl)c(Br)cc1Cl)c1ccccc1 (configuration not stated)
- Potency [10]: inconclusive: 68.6 µM [cytotoxic, partial curve, poor fit]
- Potency [3]: inconclusive: 61.1 µM [falling, partial curve]
- Potency [8]: inconclusive: 27.3 µM [rising, single point]
- Potency [6]: inconclusive: 27.3 µM [rising, partial curve, poor fit]

SMILES: Cc1ccc2c(C)cccc2c1
- Potency [7]: inactive
- Potency [3]: inactive
- Potency [5]: inactive

SMILES: CC1=C2[C@H]3OC(=O)[C@@H](C)[C@@H]3CC[C@@]2(C)C=CC1=O
- Potency [10]: inactive

SMILES: COC(C)(C)CCCC(C)C/C=C/C(C)=C/C(=O)OC(C)C (configuration not stated)
- Potency [10]: inconclusive: 67.5 µM [cytotoxic, partial curve]
